Experimental data taken from PMC4336329 (PLoS ONE, 2015).
Hit rate of the full screen: of about 310,000 compounds, about 14,000 (4.5%) showed an effect of 50% or more. Effects have a minus sign here. The list shows a part of the results.

target: human ether-à-go-go-related gene (hERG) potassium channel (human, UniProt Q12809); experiment: primary screen, population patch clamp on CHO cells stably expressing hERG
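Note: peak tail current of the secondary pulse compared with the same well before compound.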

human ether-à-go-go-related gene (hERG) potassium channel, sequence (Q12809 whole entry, looked up): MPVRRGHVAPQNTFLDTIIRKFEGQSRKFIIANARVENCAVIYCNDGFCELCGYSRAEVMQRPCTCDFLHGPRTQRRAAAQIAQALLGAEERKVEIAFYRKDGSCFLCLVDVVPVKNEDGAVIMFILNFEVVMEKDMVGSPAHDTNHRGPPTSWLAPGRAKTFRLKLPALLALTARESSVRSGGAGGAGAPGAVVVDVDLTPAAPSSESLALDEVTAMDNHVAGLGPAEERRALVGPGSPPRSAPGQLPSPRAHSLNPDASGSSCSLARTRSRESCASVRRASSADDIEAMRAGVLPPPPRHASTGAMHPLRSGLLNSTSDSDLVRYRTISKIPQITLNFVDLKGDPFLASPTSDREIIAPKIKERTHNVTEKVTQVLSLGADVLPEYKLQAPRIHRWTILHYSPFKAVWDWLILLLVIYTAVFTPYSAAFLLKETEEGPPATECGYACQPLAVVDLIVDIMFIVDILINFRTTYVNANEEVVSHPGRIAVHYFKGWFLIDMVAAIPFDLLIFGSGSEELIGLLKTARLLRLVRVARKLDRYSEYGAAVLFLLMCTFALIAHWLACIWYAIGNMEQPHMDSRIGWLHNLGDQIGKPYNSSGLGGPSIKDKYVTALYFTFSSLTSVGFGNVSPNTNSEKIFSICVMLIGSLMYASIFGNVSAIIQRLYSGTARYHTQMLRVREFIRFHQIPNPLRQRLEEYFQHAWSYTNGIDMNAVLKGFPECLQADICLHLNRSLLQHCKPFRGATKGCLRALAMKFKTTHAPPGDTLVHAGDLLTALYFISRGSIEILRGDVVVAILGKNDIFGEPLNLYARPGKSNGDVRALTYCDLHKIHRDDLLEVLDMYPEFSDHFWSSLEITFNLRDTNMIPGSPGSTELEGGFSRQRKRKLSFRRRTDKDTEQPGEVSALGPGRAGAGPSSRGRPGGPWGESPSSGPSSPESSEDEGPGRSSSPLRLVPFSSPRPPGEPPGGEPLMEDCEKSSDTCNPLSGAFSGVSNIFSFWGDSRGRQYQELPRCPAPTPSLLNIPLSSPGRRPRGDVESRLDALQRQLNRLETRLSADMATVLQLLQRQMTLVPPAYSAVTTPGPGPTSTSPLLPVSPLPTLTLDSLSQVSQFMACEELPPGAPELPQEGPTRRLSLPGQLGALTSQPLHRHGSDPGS

| SMILES | hERG current change (%, negative = inhibition) at 10uM [%] |
| --- | --- |
| C=CCn1c(C(C)NC(=O)CCC)nc2ccccc21 (stereo not drawn) | -0.796 |
| CC(C)c1nc2sc3ccccc3c(=O)c2c(=O)n1Cc1ccccc1 | 14.3 |
| O=C(NCc1cccnc1)Nc1cccc(F)c1 | 7.53 |
| CS(=O)(=O)Oc1ccccc1/C=C1/N=C(c2ccc(F)cc2)OC1=O | 5.38 |
| CCC(=O)Nc1ccc(-c2nc(-c3ccccc3)n(CC(=O)N3CCCCC3)n2)cc1 | 4.45 |
| O=C(NNS(=O)(=O)c1ccc([N+](=O)[O-])cc1)C(=O)Nc1cccc(C(=O)O)c1 | 11.9 |
| S=C(NCc1ccco1)Nc1ccc2c(c1)OCCO2 | -16.3 |
| O=c1cc(-c2ccccc2)nc(N2CCN(Cc3ccccc3)CC2)[nH]1 | 7.59 |
| CC1CC(CC(=O)NNc2nc(-c3ccccc3)cs2)C(=O)O1 (stereo not drawn) | 26.9 |
| O=C(O)c1ccc(NC(=O)c2ccc3c(c2)C(=O)N(c2ccccc2)C3=O)cc1 | 0.309 |
| O=C(O)CN1C(=O)/C(=C/C=C/c2ccccc2)SC1=S | 6.43 |
| COc1ccc(C(c2c[nH]c3ccccc23)c2c[nH]c3ccccc23)cc1O | -5.44 |
| COc1ccc2oc(C(=O)NCc3ccco3)c(C)c2c1 | 8.36 |
| CCOc1ccc(N2CC(O)(c3ccc(F)cc3)[N+]3=C2CCCC3)cc1.[Br-] (stereo not drawn) | -71.6 |
| O=C(O)c1ccccc1C(=O)Nc1nc(-c2ccc3ccccc3c2)cs1 | 28.5 |
| O=C(Nn1cnnc1)c1cc(Cl)cc(Cl)c1 | 24.9 |
| COc1cccc(NC(=O)CN(C)C(=O)c2csc3c2CCCC3)c1 | -7.46 |
| NC(=O)NOCc1ncc(C(F)(F)F)cc1Cl | 10.4 |
| O=C(CSc1ccc(-c2ccco2)nn1)Nc1ccccc1F | -43.4 |
| O=C(NCCCN1CCOCC1)c1ccc2c(=O)n(CCc3ccccc3)c(=O)[nH]c2c1 | -0.86 |
| COc1ncccc1-c1nnn(-c2ccccc2Br)n1 | -2.1 |
| CCN1CCN(Cc2nc(N)nc(Nc3ccc(C)c(C)c3)n2)CC1 | -65.8 |

| SMILES | hERG current change (%, negative = inhibition) at 10uM [%] |
| --- | --- |
| O=C(CSC1=NC2(CCCCC2)N=C1c1ccccc1)Nc1ccc2c(c1)OCCO2 | 4.15 |
| O=C(COC(=O)CNC(=O)c1cccc(OC(F)F)c1)NNC(=O)c1ccccc1 | 2.87 |
| O=C(NCCc1ccc(Cl)cc1Cl)c1cccnc1 | -7.34 |
| O=C(NC1(C(F)(F)F)OCCO1)c1ccc(F)cc1 | 22.7 |
| CCn1ncc(S(=O)(=O)N2CCN(c3cccc(OC)c3)CC2)c1C | 5.68 |
| Cc1cccc(C(=O)NCC(=O)N2CCCC2)c1 | 7.78 |
| CCOC(=O)CSc1nc(C2CC2)cc(-c2ccc(Cl)cc2)c1C#N | 0.43 |
| O=C(CS(=O)(=O)Cc1ccccc1)Nc1cccnc1 | 12.9 |
| Cc1c(N2C(=O)CS/C2=N\N=C\c2ccc(Br)cc2)c(=O)n(-c2ccccc2)n1C | -26.7 |
| O=Cc1ccc(Oc2ncccn2)cc1 | -3.68 |
| Cc1cccc(OCC(=O)NCCNC(=O)c2ccncc2)c1 | 19.9 |
| CC(=O)Nc1ccc(S(=O)(=O)N2CCN(CCCOc3ccccc3Cl)CC2)cc1 | -49.6 |
| CC1CCc2c(sc(NC(=O)COC(=O)C3CCCO3)c2C#N)C1 (stereo not drawn) | 1.37 |
| O=C(N/N=C\c1c(O)ccc2ccccc12)c1ccc(O)cc1 | 14.3 |
| CCN(C(=O)COC(=O)C(Cc1ccccc1)N1C(=O)c2ccccc2C1=O)C1CCS(=O)(=O)C1 (stereo not drawn) | -29 |
| Oc1c(Br)cc(/C=N/Nc2nncc3ccccc23)cc1Br | 27.8 |
| COc1ccc(CSc2nc(C)cc(=O)[nH]2)cc1 | 1.88 |
| O=C(O)c1cccc(S(=O)(=O)N2CCN(Cc3ccc4c(c3)OCO4)CC2)c1 | 28.4 |
| Cc1ccc2nc(-c3ccccc3)cc(C(=O)N(C)CC(=O)Nc3ccccc3Br)c2c1 | -11 |
| Cc1cc(NC(=O)CSc2nnc(-c3c[nH]c4ccccc34)n2-c2ccc(Cl)cc2)no1 | 9.4 |
| O=C(COC(=O)CCc1c[nH]c(=O)[nH]1)Nc1cccc(Cl)c1 | -3.29 |
| CCn1c(=O)c2cc(C(=O)NCCN3CCOCC3)sc2c2ccccc21 | 0.389 |

| SMILES | hERG current change (%, negative = inhibition) at 10uM [%] |
| --- | --- |
| COc1ccc(Cl)cc1NC(=O)Nc1ccc(C(=O)N2CCCC2)cc1 | -6.41 |
| CCOC(=O)c1c(CN2CCOCC2)n(C)c2cc(Br)c(O)c(CN(C)C)c12.Cl | -26.6 |
| CCCOc1cccc(C(=O)N2CCN(C(=O)C3CCCO3)CC2)c1 (stereo not drawn) | 7.15 |
| Cc1ccc(NC(=O)c2ccc(S(=O)(=O)NCc3ccco3)cc2)cc1 | 8.38 |
| CCC1CCCCN1C(=O)CCn1ccnc1 (stereo not drawn) | 39.8 |
| Nc1c(C(=O)CSc2nccn2-c2cccc(F)c2)c(=O)[nH]c(=O)n1C1CC1 | 10.2 |
| O=C(COC(=O)CNC(=O)c1ccccc1)NC1CCCCC1 | -3.32 |
| COc1ccc(N2CCN(c3ccc(NC(=O)C4CCCCC4)cc3C#N)CC2)cc1 | 15.2 |
| CCn1c(SCC(=O)c2ccc(C)cc2)nnc1-c1ccncc1 | 10.7 |
| Cc1ccc2c(c1)[C@@H]1CN(C)CC[C@@H]1N2S(=O)(=O)c1ccc(F)cc1.Cl | -29.1 |
| CC1Cc2ccccc2N1C(=O)CSc1nnc2c(n1)[nH]c1ccccc12 (stereo not drawn) | 4.82 |
| C=Cn1ccnc1P(=S)(c1c(C)nn(-c2ccccc2)c1C)c1nccn1C=C | -0.536 |
| CN(CC(=O)Nc1ccccc1Cl)C(=O)COC(=O)c1cc([N+](=O)[O-])ccc1N1CCOCC1 | -44.4 |
| Cc1ccc(-n2nc(C(=O)NCc3ccco3)c3c4ccccc4n(C)c3c2=O)cc1 | 10.4 |
| O=C(O)C(Cc1ccccc1)N1C(=O)/C(=C/c2cccc3ccccc23)SC1=S (stereo not drawn) | 15.1 |
| Cc1cc(NS(=O)(=O)c2ccc(NC(=O)c3cc4ccccc4o3)cc2)nc(C)n1 | -0.991 |
| CC(C)NC(=O)c1ccccc1-c1nc(-c2ccccc2Cl)no1 | -5.34 |
| O=C(CSc1nnnn1-c1ccc2c(c1)CCC2)Nc1ccc2c(c1)OCCO2 | -2.13 |
| COc1ccc(C2CC(c3ccccc3)=NN2C(=O)COC(=O)COc2ccccc2)cc1 (stereo not drawn) | 9.4 |
| CC(Nc1ccc(N2CCOCC2)cc1)C(=O)N1c2ccccc2CC1C (stereo not drawn) | 4.02 |
| Cc1cc(NC(=O)c2c(F)cccc2Cl)n(-c2nc3ccccc3[nH]2)n1 | -0.633 |
| N#Cc1c(N)nc(SCC(=O)OCc2ccccc2)c(C#N)c1-c1ccco1 | -20.8 |

| SMILES | hERG current change (%, negative = inhibition) at 10uM [%] |
| --- | --- |
| O/C(=C\Sc1nnc(Cc2ccccc2)o1)c1ccc(F)cc1 | -5.33 |
| CCOC(=O)c1sc(NC(=O)CN2C(=O)NC3(CC(C)CC(C)(C)C3)C2=O)cc1C (stereo not drawn) | 6.49 |
| O=C(N/N=C/c1cccnc1)c1cccc(NC(=O)c2ccccc2Cl)c1 | 21.5 |
| O=C(NC(Cc1c[nH]c2ccccc12)C(=O)Nc1ccc(OC(F)(F)F)cc1)c1cccs1 (stereo not drawn) | -10.7 |
| CC1(C)OC(=O)C(=Cc2ccc(-c3ccc(S(N)(=O)=O)cc3)o2)C(=O)O1 | 13.6 |
| Cc1nc2cccc(C(=O)NC3CCCCC3)c2o1 | 8.8 |
| Cc1ccc(C)c(N(CC(=O)NCc2ccco2)C(=O)CNS(=O)(=O)c2ccccc2)c1 | 4.84 |
| Cc1cc(C)n(CCNC(=O)CC2C(=O)NCCN2Cc2ccc(C)o2)n1 (stereo not drawn) | 12.6 |
| CC(C)OC(=O)NC(C)(C)COC(=O)Nc1cccc(Cl)c1 | -3.14 |
| NC(=O)c1cc(N2C(=O)C3CC=CCC3C2=O)ccc1N1CCCCC1 (stereo not drawn) | -22.2 |
| O=C(c1ccc(N2CCCC2=O)cc1)N1CCOCC1 | 15.5 |
| CCOc1ccc2c(c1)[nH]c(=S)n2C | 4.86 |
| O=C(NCc1ccco1)C(=O)NCC1OCCN1S(=O)(=O)c1ccc(F)cc1 (stereo not drawn) | -2.51 |
| O=C(N1CCOCC1)N1CCCC(c2nc(-c3cccs3)no2)C1 (stereo not drawn) | -8.73 |
| Cc1ccc(-n2nnc3c(SCC(=O)NCC4CCCO4)ncnc32)cc1 (stereo not drawn) | -13.1 |
| Cc1ccc(C(=O)NCC(=O)OCC(=O)c2ccc(Br)s2)cc1 | 12.9 |
| O=C(Nc1ccccc1Cl)c1ccc(S(=O)(=O)N2CCOCC2)cc1 | 3.26 |
| CC(C#N)Sc1ncnc2sc3c(c12)CCC3 (stereo not drawn) | 0.835 |
| CC1CCN(C(=O)COC(=O)[C@H](C)NS(=O)(=O)/C=C/c2ccccc2)CC1 | -6.14 |
| CCOc1cccc2cc(C(=O)Nc3cc(C)on3)c(=O)oc12 | -7.3 |
| COc1cc(C(=O)O/N=C2\C=CC(=O)C(C)=C2)cc(OC)c1OC | 5.24 |
